# Source: the supplement of paper PMC8728848
# The other results are listed elsewhere or left out.
# B1: Siglec-9 (Homo sapiens), Q9Y336 (protein)
# chain: MLLLLLPLLWGRERAEGQTSKLLTMQSSVTVQEGLCVHVPCSFSYPSHGWIYPGPVVHGYWFREGANTDQDAPVATNNPARAVWEETRDRFHLLGDPHTKNCTLSIRDARRSDAGRYFFKMEKGSIKWNYKHHRLSVNVTALTHRPNILIPGTLESGCPQNLTCSVPWACEQGTPPMISWIGTSVSPLDPSTTRSSVLTLIPQPQDHGTSLTCQVTFPGASVTTNKTVHLNVSYPPQNLTMTVFQGDGTVSTVLGNGSSLSLPEGQSLRLVCAVDAVDSNPPARLSLSWRGLTLCPSQPSNPGVLELPWVHLRDAAEFTCRAQNPLGSQQVYLNVSLQSKATSGVTQGVVGGAGATALVFLSFCVIFVVVRSCRKKSARPAAGVGDTGIEDANAVRGSASQGPLTEPWAEDSPPDQPPPASARSSVGEGELQYASLSFQMVKPWDSRGQEATDTEYSEIKIHR
# Tests used:
# Assay in all cases: glycan array binding signal (z-score within array); higher = stronger binding
# Details in all cases: glycan notation: IUPAC condensed, linker removed; mutation: R120K
# [1] = target: Fuc(a1-2)Gal
# Outline: (§1)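 Glycan array data were curated from 3228 arrays in the Consortium for Functional Glycomics database and kept only where the protein sequence was available. Glycan names were converted to IUPAC-condensed notation, and columns mapping to the same glycan were averaged. The binding signal is a within-array Z-score, averaged across arrays of the same protein sequence at different concentrations or buffers and across linkers. Negative Z-scores can be read as non-binding.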
# [2] = target: Fuc(a1-2)Gal(b1-3)GalNAc
# Outline: as §1
# [3] = target: Fuc(a1-2)Gal(b1-3)GalNAc(a1-3)[Fuc(a1-2)]Gal(b1-4)Glc
# Outline: as §1
# [4] = target: Fuc(a1-2)Gal(b1-3)GalNAc(a1-3)[Fuc(a1-2)]Gal(b1-4)GlcNAc
# Outline: as §1
# [5] = target: Fuc(a1-2)Gal(b1-3)GalNAc(b1-3)Gal
# Outline: as §1
# [6] = target: Fuc(a1-2)Gal(b1-3)GalNAc(b1-3)Gal(a1-4)Gal(b1-4)Glc
# Outline: as §1
# [7] = target: Fuc(a1-2)Gal(b1-3)GalNAc(b1-4)[Neu5Ac(a2-3)]Gal(b1-4)Glc
# Outline: as §1
# [8] = target: Fuc(a1-2)Gal(b1-3)GlcNAc
# Outline: as §1
# [9] = target: Fuc(a1-2)Gal(b1-3)GlcNAc(b1-2)Man(a1-3)[Fuc(a1-2)Gal(b1-3)GlcNAc(b1-2)Man(a1-6)]Man(b1-4)GlcNAc(b1-4)GlcNAc
# Outline: as §1
# [10] = target: Fuc(a1-2)Gal(b1-3)GlcNAc(b1-2)Man(a1-3)[Fuc(a1-2)Gal(b1-3)GlcNAc(b1-2)Man(a1-6)]Man(b1-4)GlcNAc(b1-4)[Fuc(a1-6)]GlcNAc
# Outline: as §1
# [11] = target: Fuc(a1-2)Gal(b1-3)GlcNAc(b1-3)Gal(b1-4)Glc
# Outline: as §1
# [12] = target: Fuc(a1-2)Gal(b1-3)GlcNAc(b1-3)GalNAc
# Outline: as §1
# [13] = target: Fuc(a1-2)Gal(b1-3)GlcNAc(b1-3)[Fuc(a1-2)Gal(b1-3)GlcNAc(b1-6)]GalNAc
# Outline: as §1
# [14] = target: Fuc(a1-2)Gal(b1-3)GlcNAc(b1-3)[Gal(b1-4)GlcNAc(b1-6)]Gal(b1-4)Glc
# Outline: as §1
# [15] = target: Fuc(a1-2)Gal(b1-3)GlcNAc(b1-3)[Neu5Ac(a2-6)Gal(b1-4)GlcNAc(b1-6)]Gal(b1-4)Glc
# Outline: as §1
# [16] = target: Fuc(a1-2)Gal(b1-3)GlcNAc6S
# Outline: as §1
# [17] = target: Fuc(a1-2)Gal(b1-3)[Fuc(a1-4)]GlcNAc
# Outline: as §1
# [18] = target: Fuc(a1-2)Gal(b1-3)[Fuc(a1-4)]GlcNAc(b1-2)Man(a1-3)[Fuc(a1-2)Gal(b1-3)[Fuc(a1-4)]GlcNAc(b1-2)Man(a1-3)]Man(b1-4)GlcNAc(b1-4)GlcNAc
# Outline: as §1
# [19] = target: Fuc(a1-2)Gal(b1-3)[Fuc(a1-4)]GlcNAc(b1-2)Man(a1-3)[Fuc(a1-2)Gal(b1-3)[Fuc(a1-4)]GlcNAc(b1-2)Man(a1-6)]Man(b1-4)GlcNAc(b1-4)[Fuc(a1-6)]GlcNAc(b1-4)[Fuc(a1-6)]GlcNAc
# Outline: as §1
# [20] = target: Fuc(a1-2)Gal(b1-3)[Fuc(a1-4)]GlcNAc(b1-3)[Fuc(a1-3)[Gal(b1-4)]GlcNAc(b1-6)]Gal(b1-4)Glc
# Outline: as §1
# [21] = target: Fuc(a1-2)Gal(b1-3)[Fuc(a1-4)]GlcNAc(b1-3)[Gal(b1-4)GlcNAc(b1-6)]Gal(b1-4)Glc
# Outline: as §1
# [22] = target: Fuc(a1-2)Gal(b1-4)Fuc(a1-3)]GlcNAc(b1-2)Man(a1-3)[Fuc(a1-2)Gal(b1-4)[Fuc(a1-3)]GlcNAc(b1-2)Man(a1-6)]Man(b1-4)GlcNAc(b1-4)GlcNAc
# Outline: as §1
# [23] = target: Fuc(a1-2)Gal(b1-4)Glc
# Outline: as §1
# [24] = target: Fuc(a1-2)Gal(b1-4)Glc6S
# Outline: as §1
# [25] = target: Fuc(a1-2)Gal(b1-4)GlcNAc
# Outline: as §1
# [26] = target: Fuc(a1-2)Gal(b1-4)GlcNAc(b1-2)Man
# Outline: as §1
# [27] = target: Fuc(a1-2)Gal(b1-4)GlcNAc(b1-2)Man(a1-3)[Fuc(a1-2)Gal(b1-4)GlcNAc(b1-2)Man(a1-6)]Man(b1-4)GlcNAc(b1-4)GlcNAc
# Outline: as §1
# [28] = target: Fuc(a1-2)Gal(b1-4)GlcNAc(b1-2)Man(a1-3)[Fuc(a1-2)Gal(b1-4)GlcNAc(b1-2)Man(a1-6)]Man(b1-4)GlcNAc(b1-4)[Fuc(a1-6)]GlcNAc
# Outline: as §1
# [29] = target: Fuc(a1-2)Gal(b1-4)GlcNAc(b1-2)[Fuc(a1-2)Gal(b1-4)GlcNAc(b1-4)]Man(a1-3)[Fuc(a1-2)Gal(b1-4)GlcNAc(b1-2)Man(a1-6)]Man(b1-4)GlcNAc(b1-4)GlcNAc
# Outline: as §1
# [30] = target: Fuc(a1-2)Gal(b1-4)GlcNAc(b1-3)Gal(b1-4)GlcNAc
# Outline: as §1
# [31] = target: Fuc(a1-2)Gal(b1-4)GlcNAc(b1-3)Gal(b1-4)GlcNAc(b1-2)Man(a1-3)[Fuc(a1-2)Gal(b1-4)GlcNAc(b1-3)Gal(b1-4)GlcNAc(b1-2)Man(a1-6)]Man(b1-4)GlcNAc(b1-4)GlcNAc
# Outline: as §1
# [32] = target: Fuc(a1-2)Gal(b1-4)GlcNAc(b1-3)Gal(b1-4)GlcNAc(b1-3)Gal(b1-4)GlcNAc
# Outline: as §1
# [33] = target: Fuc(a1-2)Gal(b1-4)GlcNAc(b1-3)GalNAc
# Outline: as §1
# [34] = target: Fuc(a1-2)Gal(b1-4)GlcNAc(b1-3)[Fuc(a1-2)Gal(b1-4)GlcNAc(b1-6)]GalNAc
# Outline: as §1
# [35] = target: Fuc(a1-2)Gal(b1-4)GlcNAc(b1-3)[Fuc(a1-3)[Gal(b1-4)]GlcNAc(b1-6)]Gal(b1-4)Glc
# Outline: as §1
# [36] = target: Fuc(a1-2)Gal(b1-4)GlcNAc(b1-6)GalNAc
# Outline: as §1
# [37] = target: Fuc(a1-2)Gal(b1-4)GlcNAc6S
# Outline: as §1
# [38] = target: Fuc(a1-2)Gal(b1-4)[Fuc(a1-3)]GlcNAc
# Outline: as §1
# [39] = target: Fuc(a1-2)Gal(b1-4)[Fuc(a1-3)]GlcNAc(b1-2)Man(a1-3)[Fuc(a1-2)Gal(b1-4)[Fuc(a1-3)]GlcNAc(b1-2)Man(a1-6)]Man(b1-4)GlcNAc(b1-4)[Fuc(a1-6)]GlcNAc
# Outline: as §1
# [40] = target: Fuc(a1-2)Gal(b1-4)[Fuc(a1-3)]GlcNAc(b1-2)[Fuc(a1-2)Gal(b1-4)[Fuc(a1-3)]GlcNAc(b1-4)]Man(a1-3)[Fuc(a1-2)Gal(b1-4)[Fuc(a1-3)]GlcNAc(b1-2)Man(a1-6)]Man(b1-4)GlcNAc(b1-4)GlcNAc
# Outline: as §1
# [41] = target: Fuc(a1-2)Gal(b1-4)[Fuc(a1-3)]GlcNAc(b1-3)Gal(b1-4)[Fuc(a1-3)]GlcNAc
# Outline: as §1
# [42] = target: Fuc(a1-2)Gal(b1-4)[Fuc(a1-3)]GlcNAc(b1-3)Gal(b1-4)[Fuc(a1-3)]GlcNAc(b1-3)Gal(b1-4)[Fuc(a1-3)]GlcNAc
# Outline: as §1
# [43] = target: Fuc(a1-2)Gal(b1-4)[Fuc(a1-3)]GlcNAc(b1-3)GalNAc
# Outline: as §1
# [44] = target: Fuc(a1-2)Gal(b1-4)[Fuc(a1-3)]GlcNAc(b1-3)[Neu5Ac(a2-6)Gal(b1-4)GlcNAc(b1-6)]Gal(b1-4)Glc
# Outline: as §1
# [45] = target: Fuc(a1-2)Gal3S(b1-4)GlcNAc
# Outline: as §1
binder,measurement,setting,value
B1,glycan array binding signal (z-score),[1],-0.389
same,glycan array binding signal (z-score),[2],-0.342
same,glycan array binding signal (z-score),[3],0.079
same,glycan array binding signal (z-score),[4],-0.367
same,glycan array binding signal (z-score),[5],1.56
same,glycan array binding signal (z-score),[6],-0.035
same,glycan array binding signal (z-score),[7],-0.088
same,glycan array binding signal (z-score),[8],-0.361
same,glycan array binding signal (z-score),[9],0.613
same,glycan array binding signal (z-score),[10],0.663
same,glycan array binding signal (z-score),[11],-0.152
same,glycan array binding signal (z-score),[12],-0.33
same,glycan array binding signal (z-score),[13],-0.127
same,glycan array binding signal (z-score),[14],0.148
same,glycan array binding signal (z-score),[15],-0.287
same,glycan array binding signal (z-score),[16],-0.166
same,glycan array binding signal (z-score),[17],-0.351
same,glycan array binding signal (z-score),[18],2.09
same,glycan array binding signal (z-score),[19],0.205
same,glycan array binding signal (z-score),[20],-0.535
same,glycan array binding signal (z-score),[21],-0.297
same,glycan array binding signal (z-score),[22],6.8
same,glycan array binding signal (z-score),[23],-0.328
same,glycan array binding signal (z-score),[24],-0.423
same,glycan array binding signal (z-score),[25],-0.357
same,glycan array binding signal (z-score),[26],0.754
same,glycan array binding signal (z-score),[27],0.474
same,glycan array binding signal (z-score),[28],0.613
same,glycan array binding signal (z-score),[29],0.008
same,glycan array binding signal (z-score),[30],-0.693
same,glycan array binding signal (z-score),[31],-0.282
same,glycan array binding signal (z-score),[32],-0.031
same,glycan array binding signal (z-score),[33],-0.193
same,glycan array binding signal (z-score),[34],-0.037
same,glycan array binding signal (z-score),[35],-0.271
same,glycan array binding signal (z-score),[36],-0.04
same,glycan array binding signal (z-score),[37],-0.375
same,glycan array binding signal (z-score),[38],-0.297
same,glycan array binding signal (z-score),[39],0.216
same,glycan array binding signal (z-score),[40],-0.051
same,glycan array binding signal (z-score),[41],-0.283
same,glycan array binding signal (z-score),[42],-0.319
same,glycan array binding signal (z-score),[43],-0.015
same,glycan array binding signal (z-score),[44],0.167
same,glycan array binding signal (z-score),[45],-0.409
